Measurements published in the antibiotic and cytotoxicity screens of Wong et al. (2023).
The list shows a part of the results.

Tests used:
[1] = system: HSkMC (human skeletal muscle cells); test: cytotoxicity call (relative viability < 0.9); details: 10 µM
[2] = system: HepG2; test: cytotoxicity call (relative viability < 0.9); details: 10 µM
[3] = system: S. aureus RN4220; test: growth inhibition call (relative growth <= 0.2); details: 50 µM

CO[C@H]1O[C@H](CO)[C@@H](OC(=O)Nc2ccc(Oc3ccccc3)cc2)[C@H](OC(=O)Nc2ccccc2)[C@H]1OC(=O)Nc1ccccc1
inactive: cytotoxicity call [1] | cytotoxicity call [2] | growth inhibition call [3]

COc1ccc(NC(=O)N(C)C[C@@H]2Oc3ccc(NC(=O)Nc4cccc5ccccc45)cc3C(=O)N([C@@H](C)CO)C[C@H]2C)cc1
inactive: cytotoxicity call [1] | cytotoxicity call [2] | growth inhibition call [3]

C[C@@H]1CN([C@H](C)CO)C(=O)Cc2cc(NC(=O)Cn3cnnn3)ccc2O[C@H]1CN(C)Cc1ccc(C(=O)Nc2ccccc2N)cc1
inactive: cytotoxicity call [1] | cytotoxicity call [2] | growth inhibition call [3]

CC(C)(C)[S@@](=O)N1Cc2cc(C(=O)N3CCc4ccccc4C3)nc(-c3cccc(-c4cccnc4)c3)c2[C@H]1CCO
inactive: cytotoxicity call [1] | cytotoxicity call [2] | growth inhibition call [3]

Cc1ccc(-c2ccc3c(c2)O[C@H](CN(C)C(=O)NC(C)C)[C@@H](C)CN([C@@H](C)CO)S3(=O)=O)cc1
inactive: cytotoxicity call [1] | cytotoxicity call [2] | growth inhibition call [3]

Cc1ccc(S(=O)(=O)Nc2ccc3c(c2)CC(=O)N([C@H](C)CO)C[C@H](C)[C@H](CN(C)S(=O)(=O)c2cccs2)O3)cc1
inactive: cytotoxicity call [1] | cytotoxicity call [2] | growth inhibition call [3]

COc1ccc2c3c(n(c2c1)C)[C@H](CO)N(C[C@]13CN(C1)C(=O)CN1CCOCC1)C(=O)Nc1ccc(cc1)F
inactive: cytotoxicity call [1] | cytotoxicity call [2] | growth inhibition call [3]

COCC(=O)N1C[C@]2(C1)CN([C@@H](CO)c1c2c2ccc(cc2n1C)OC)C(=O)CN1CCOCC1
inactive: cytotoxicity call [1] | cytotoxicity call [2] | growth inhibition call [3]
